The test system of assay [1] is H9 teratoma-derived LAM model cells, TSC2-/-. Put plainly: percent SyTOX+ dead cells; higher = more cytotoxic. Conditions: 5 µM, treatment time 72 h, culture: 3D hyaluronic acid hydrogel.
The subject of assay [2] is H9 teratoma-derived LAM model cells, WT. Put plainly: percent SyTOX+ dead cells; higher = more cytotoxic. Conditions: 5 µM, treatment time 72 h, culture: 3D hyaluronic acid hydrogel, genotype: WT.
For assay [3], the system named is H9 teratoma-derived LAM model cells, TSC2-/-. Put plainly: percent of cells invaded past median invasion distance of vehicle control; LAM is lymphangioleiomyomatosis; the cells come from teratomas of the human stem cell line H9; higher = more invasion; extreme values may be limits of the assay. Conditions: 5 µM, treatment time 72 h, culture: 3D hyaluronic acid hydrogel.
Assay [4] concerns H9 teratoma-derived LAM model cells, WT. The assay is described as above. Conditions: 5 µM, treatment time 72 h, culture: 3D hyaluronic acid hydrogel, genotype: WT.

“And” between values parts separate entries of the source, which are not always exact repeats. Identical values can stand only once. The list shows a part of the results. Many values rest on one well or one pass, so single values are uncertain.

This note sets out measurements from the supplement of paper PMC10502849.
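For percent SyTOX+ dead cells in this document: cells seeded atop a hyaluronic acid gel crosslinked via MMP-cleavable peptides, containing vitronectin peptides and methylcellulose, imaged live by high-content microscopy with automated analysis, one technical replicate per compound.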
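For percent of cells invaded past median invasion distance of vehicle control in this document: live cells imaged by high content microscopy and scored with in-house automated image analysis, one technical replicate per compound in each genotype and rapamycin condition.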

As to `CCOc1cc2ncc(C#N)c(Nc3ccc(OCc4ccccn4)c(Cl)c3)c2cc1NC(=O)/C=C/CN(C)C` [Neratinib, HKI-272, CPD-820], the “percent SyTOX+ dead cells” value in assay [1] (rapamycin 0 nM) is 5.46%; in assay [1] (rapamycin 20 nM), 9.62%; in assay [2] (rapamycin 0 nM) it was 28.5%; in assay [2] (rapamycin 20 nM) it was 33.9%. Besides, the percent in assay [3] (rapamycin 0 nM) was 80.2%; in assay [3] (rapamycin 20 nM) it was 99.6%; in assay [4] (rapamycin 0 nM), 35.4%; in assay [4] (rapamycin 20 nM) it was 45.2%.
As for `COc1cc2ncc(-c3ccccc3)nc2cc1OC` [Tyrphostin AG-1296], the “percent SyTOX+ dead cells” value in assay [1] (rapamycin 0 nM) was found to be 7.49%; in assay [1] (rapamycin 20 nM), 6.91%; in assay [2] (rapamycin 0 nM) it was 14.1%; in assay [2] (rapamycin 20 nM), 5.56%. In addition, the percent amounted to 27.3% in assay [3] (rapamycin 0 nM), 19.1% in assay [3] (rapamycin 20 nM), 21.6% in assay [4] (rapamycin 0 nM) and 23% in assay [4] (rapamycin 20 nM).
`O=C(c1ccc(Nc2nccc(-c3cc4ccccc4s3)n2)cc1)N1CCC(N2CCCC2)CC1`: the “percent SyTOX+ dead cells” value stood at 38.4% in assay [1] (rapamycin 0 nM), 37.6% in assay [1] (rapamycin 20 nM), 39.8% in assay [2] (rapamycin 0 nM) and 39.3% in assay [2] (rapamycin 20 nM). Also, the percent in assay [3] (rapamycin 0 nM) is 2.91%; in assay [3] (rapamycin 20 nM) it was 3.82%; in assay [4] (rapamycin 0 nM) it was 9.41%; in assay [4] (rapamycin 20 nM) it was 20.2%.
In the case of `C=CC(=O)Nc1cc2c(Nc3ccc(F)c(Cl)c3)ncnc2cc1C#CC(C)(C)N1CCN(C)CC1`, the “percent SyTOX+ dead cells” value in assay [1] (rapamycin 0 nM) amounted to 73%; in assay [1] (rapamycin 20 nM), 71.3%; in assay [2] (rapamycin 0 nM) it was 77%; in assay [2] (rapamycin 20 nM), 80%. The percent stood at 6.5% in assay [3] (rapamycin 0 nM), 10.6% in assay [3] (rapamycin 20 nM), 0% in assay [4] (rapamycin 0 nM) and 0.43% in assay [4] (rapamycin 20 nM).
`C[C@@H](N)[C@H]1CC[C@H](C(=O)Nc2ccncc2)CC1`: the “percent SyTOX+ dead cells” value in assay [1] (rapamycin 0 nM) was 6.98% and 1.77%; in assay [1] (rapamycin 20 nM), 16.3% and 0.59%; in assay [2] (rapamycin 0 nM), 12.9% and 11.7%; in assay [2] (rapamycin 20 nM) it was 16.3% and 5.04%. For the same compound, the percent in assay [4] (rapamycin 20 nM) is 6.8% and 19.6%.
As for `OCCn1cc(-c2cnc3nnn(Cc4ccc5ncccc5c4)c3n2)cn1`, the “percent SyTOX+ dead cells” value in assay [1] (rapamycin 0 nM) was 7.25% and 12.7%; in assay [1] (rapamycin 20 nM) it was 17.1% and 8.33%; in assay [2] (rapamycin 0 nM), 11.4% and 12.8%; in assay [2] (rapamycin 20 nM), 3.22% and 17.7%. In addition, the percent in assay [3] (rapamycin 20 nM) is 27.3% and 37.5%; in assay [4] (rapamycin 0 nM), 35.6% and 23.9%.
With `Cc1ccc(C(=O)Nc2ccc(CN3CCN(C)CC3)c(C(F)(F)F)c2)cc1C#Cc1cnc2cccnn12`, the percent in assay [3] (rapamycin 0 nM) is 2.69%; in assay [3] (rapamycin 20 nM), 5.19%; in assay [4] (rapamycin 0 nM) it was 0%; in assay [4] (rapamycin 20 nM) it was 0%.
`O=C1NCCCc2c1oc1ccc(O)cc21`: the “percent SyTOX+ dead cells” value was 8.4% in assay [1] (rapamycin 0 nM), 4.44% in assay [1] (rapamycin 20 nM), 23.7% in assay [2] (rapamycin 0 nM) and 18.7% in assay [2] (rapamycin 20 nM). The percent worked out at 29.2% in assay [3] (rapamycin 0 nM), 19.3% in assay [3] (rapamycin 20 nM), 0% in assay [4] (rapamycin 0 nM) and 10.3% in assay [4] (rapamycin 20 nM).
Turning to `NC(=O)c1ccc(-c2nc(-c3ccc4c(c3)OCCO4)c(-c3ccccn3)[nH]2)cc1`, the “percent SyTOX+ dead cells” value was 14.8% in assay [1] (rapamycin 0 nM), 6.54% in assay [1] (rapamycin 20 nM), 34.5% in assay [2] (rapamycin 0 nM) and 18.8% in assay [2] (rapamycin 20 nM). The percent came out at 33.3% in assay [3] (rapamycin 0 nM), 29.4% in assay [3] (rapamycin 20 nM), 5.95% in assay [4] (rapamycin 0 nM) and 16.2% in assay [4] (rapamycin 20 nM).
For the compound `CCNC(=O)c1noc(-c2cc(C(C)C)c(O)cc2O)c1-c1ccc(CN2CCOCC2)cc1`, the “percent SyTOX+ dead cells” value in assay [1] (rapamycin 0 nM) turned out to be 28.6%; in assay [1] (rapamycin 20 nM) it was 37.6%; in assay [2] (rapamycin 0 nM) it was 73.5%; in assay [2] (rapamycin 20 nM) it was 46.1%. In addition, the percent amounted to 0.71% in assay [3] (rapamycin 0 nM), 0.56% in assay [3] (rapamycin 20 nM), 0% in assay [4] (rapamycin 0 nM) and 0% in assay [4] (rapamycin 20 nM).
Consider `COc1cc2ncnc(Nc3ccc(F)c(Cl)c3)c2cc1OCCCN1CCOCC1` [Gefitinib, Iressa, ZD1839], for which the “percent SyTOX+ dead cells” value in assay [1] (rapamycin 0 nM) was found to be 9.14%; in assay [1] (rapamycin 20 nM) it was 16.5%; in assay [2] (rapamycin 0 nM), 13.9%; in assay [2] (rapamycin 20 nM) it was 18.2%. Besides, the percent in assay [3] (rapamycin 0 nM) was determined as 16.8%; in assay [3] (rapamycin 20 nM), 26.1%; in assay [4] (rapamycin 0 nM) it was 3.28%; in assay [4] (rapamycin 20 nM), 5.33%.
On to `Cc1cc(C(C)Nc2ccccc2)c2nc(N3CCOCC3)cc(=O)n2c1` (stereo not drawn), for which the “percent SyTOX+ dead cells” value in assay [1] (rapamycin 0 nM) worked out at 17.6%; in assay [1] (rapamycin 20 nM) it was 16.9%; in assay [2] (rapamycin 0 nM), 32.3%; in assay [2] (rapamycin 20 nM), 19.4%. The percent in assay [3] (rapamycin 0 nM) was determined as 17.6%; in assay [3] (rapamycin 20 nM) it was 11.3%; in assay [4] (rapamycin 0 nM), 30.7%; in assay [4] (rapamycin 20 nM), 38.2%.
Take `Nc1nccc(Oc2ccc(NC(=O)c3c[nH]cc(-c4ccc(F)cc4)c3=O)cc2F)c1Cl`: the “percent SyTOX+ dead cells” value in assay [1] (rapamycin 0 nM) worked out at 10%; in assay [1] (rapamycin 20 nM) it was 12.8%; in assay [2] (rapamycin 0 nM), 22.8%; in assay [2] (rapamycin 20 nM) it was 37.2%. In addition, the percent stood at 46.2% in assay [3] (rapamycin 0 nM), 75% in assay [3] (rapamycin 20 nM), 17.3% in assay [4] (rapamycin 0 nM) and 7.28% in assay [4] (rapamycin 20 nM).
For the compound `Cc1ccc(C(=O)Nc2cccc(C(F)(F)F)c2)cc1Nc1nc(-c2cccnc2)nc2c1cnn2C`, the “percent SyTOX+ dead cells” value in assay [1] (rapamycin 0 nM) was determined as 7.41%; in assay [1] (rapamycin 20 nM), 3.41%; in assay [2] (rapamycin 0 nM), 14.5%; in assay [2] (rapamycin 20 nM), 10%. Also, the percent came out at 55.9% in assay [3] (rapamycin 0 nM), 49.7% in assay [3] (rapamycin 20 nM), 77.7% in assay [4] (rapamycin 0 nM) and 54% in assay [4] (rapamycin 20 nM).
